In all, about 33,000 sequences were measured (“E-score (-0.5 to 0.5)”: median about -0.016, highest 2% from about 0.31 on). The list shows a part of the results.
The sequences below were run against Cst6 (UniProt P40535) (assay: PBM E-score (8-mer binding enrichment) (E-score (-0.5 to 0.5)); higher = stronger / more preferred TF binding; most listed sequences are background and not binding sites). Conditions: protein concentration: 200 nM; construct: GST-DNA-binding domain.
How it was run: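 Bound GST-tagged yeast transcription factors, applied at about 100-200 nM to double-stranded universal all-10-mer Agilent arrays, were detected with fluorescent anti-GST. Scans were normalised with masliner. A modified Wilcoxon-Mann-Whitney statistic, the E-score, was assigned to each ungapped eight-base word pooled with its reverse complement by the Universal PBM Analysis Suite.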

Sequence | PBM E-score
AACCAGGA | -0.157
TAGCAAAA | 0.0695
GTGACCAC | -0.0917
CCTAGACC | -0.163
CTACCATA | -0.0212
AACGCTGA | 0.124
TGTAAAAA | 0.117
CAGGATGA | 0.032
CCTATCAA | -0.0229
CAGCGGCG | 0.0883
TACTTAAA | -0.095
CGCAGGAA | -0.143
AGCAAAAG | -0.0518
CCTAGAAA | -0.0453
CTCGATAC | 0.138
AAGTGTAT | 0.129
CGATTGCC | 0.0548
CGCCGCAA | 0.171
AGTGCACG | -0.0418
AGGTTTTA | -0.0454
CAATATGC | 0.0334
ATCGCGTC | 0.156
ACTTGACT | -0.0879
CGCTCCTA | -0.0972
CTATACAC | -0.0719

Sequence | PBM E-score
AGAGGACG | 0.0019
CTACTTGC | -0.0186
CCTGCCAA | -0.153
TATCTCCA | -0.0549
AGTGCTAG | -0.236
GTGAACAA | 0.0425
AATCTGTC | 0.0136
ACGATACA | -0.0163
ACTACCCC | -0.306
AAACAGGG | -0.235
ACCCCGAA | -0.0372
AAGTCCTA | -0.101
ACGCTTGC | -0.176
AAAGACGC | -0.0772
AACTAGCT | -0.0255
ATGCGTTC | 0.212
ATCGGAGA | -0.197
GAACGGCC | -0.183
ATAAGCTG | -0.0901
CACCTGAC | 0.122
ATTCGGGG | -0.00486
CGGCTCCC | -0.159
CGCGCTTC | 0.0156
CAAGTGGC | -0.022
GCCAAGAA | 0.0624

Sequence | PBM E-score
TCTCAAAA | 0.191
GGTTAGGA | -0.292
AACCATAT | 0.0826
CGGAGCGA | 0.0519
GGAGTAAA | 0.246
ATCGCGCC | 0.191
AACAGCTT | -0.112
AATGATGT | 0.41
GAAGCCTC | -0.131
TGAGTCCA | -0.163
AACTACAA | 0.065
AGTTCCGG | -0.275
GCCTTACC | -0.207
GGTGCGGA | 0.0463
GCACCGTA | -0.00912
CGCACAAA | 0.0716
ACGAACCT | -0.0226
ATTCGGAA | 0.124
CTAGTATA | -0.00061
AGGGTACT | -0.2
ATCCAGCG | -0.0509
ACTCAGAG | -0.0592
AGACTCAT | -0.0347
TAGACATA | 0.118
GCCGGATA | 0.0218

Sequence | PBM E-score
GGGTTTCA | -0.0236
GGTCCCGA | -0.243
CGCGCTAC | -0.045
ATAGCCTC | -0.197
AAACTTGG | -0.0317
TGTCAACA | 0.184
ACTCGGTG | -0.166
ATGTAACC | 0.0823
CAGACAAC | 0.0744
ACACGGAG | 0.0507
CTCTTTCC | -0.231
CCTACTGA | -0.147
GGGTCGGA | -0.18
ACTGGTGG | -0.292
GAACCTCA | 0.0588
GTGGACAA | 0.0549
CGAGTGTC | -0.16
AAGGGTCC | -0.331
CTATTACA | 0.158
TAAGCCCA | -0.0817
AACGTCCC | -0.173
CGATCGCC | 0.0309
CCAGCTAC | -0.25
GAAGTACA | 0.0779
AAAGGAGC | -0.125

Sequence | PBM E-score
CACGCTAC | -0.134
ACTAGCCA | -0.0828
AAGACTCC | -0.19
CAGCTTTA | 0.0227
AGCGCCTA | 0.0545
CGGGTGTC | -0.108
CCACCACG | 0.0346
GCCAAGCC | -0.198
AACCTCAC | -0.101
CCAGTCTC | -0.234
ACGGATTA | 0.0825
AATGTGAA | 0.199
ACTGCGCT | -0.0786
TCGTACCA | 0.00431
CTAAACCA | -0.0854
ATATCATC | 0.337
ATAGGGAC | -0.231
GCGTTGCA | 0.0288
AAAGCCTG | -0.166
GCCTCGAA | 0.111
TAGGCCTA | -0.00445
ACTGGAGG | -0.14
GCTACCAA | -0.223
GCCGCGCC | 0.271
AGATAGTG | 0.078

Sequence | PBM E-score
CCTAGAAG | -0.0716
CTGAATTC | -0.0737
ACTCTGGA | 0.109
AGGCTTCA | -0.16
ATGTTCCA | -0.0403
AGCCACCA | -0.134
ATATATAG | 0.263
TCTAATAA | 0.243
ACGTATGC | 0.32
ATTGAGGA | -0.00723
AAGGGTGG | -0.273
TAAGAACA | 0.312
ACACAGTG | 0.15
GTTCTTTA | 0.164
GATCAACC | -0.136
ATTCATGC | -0.00753
GTTCGCTA | -0.0267
ACCCTGAA | -0.00114
AGCAACGA | 0.175
GATACGCA | 0.0359
GGGGCACA | -0.194
GGCAAGAA | 0.112
GAGCAGGA | -0.154
TCGCAAAA | 0.162
GGCGATAC | -0.011

Sequence | PBM E-score
TCGCTCAA | -0.091
TCGCGACA | -0.202
CCAGGGGA | -0.366
CTTACCGA | 0.0702
AAGCATGA | 0.157
AATGATGA | 0.334
CTGGGATA | -0.129
AGAATTTA | 0.224
TCGTTTAA | 0.0683
TCGCGAGA | 0.00437
AGCTACGG | -0.11
CCACCCAA | -0.141
AATAACGG | 0.17
GACGATGC | 0.0529
GCAACACC | 0.0326
ACGCGCCA | -0.111
AGTCAAGC | -0.31
CAAAGGAC | -0.268
ATTTTTAA | 0.293
CGATGGTA | -0.0931
CAACAAGG | 0.241
CTGTGCAC | -0.19

From the supplement of paper PMC3334620
